# Source: the RNAGym collection of RNA variant scans (doi:10.1073/pnas.2313332121)
# Variants at the background level are over-represented here.
# B1: TPR 5TU (parent)
# chain: GGAUCUUCUCGAUCUAACAAAAAAGACAAAUCUGCCACAAAGCUUGAGAGCAUCUUCGGAUGCAGAGGCGGCAGCCUUCGGUGGCGCGAUAGCGCCAACGUUCUCAACUAUGACACGCAAAACGCGUGCUCCGUUGAAUGGAGUUUAUCAUG
# Variants of: B1
# Assay: polymerase ribozyme fitness, log enrichment relative to wild type (log ratio); higher = more active; in vitro selection for triplet polymerase activity
# Method in brief: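 In triplicate, a single round of in vitro selection was run on each mutant library, PCR-built and transcribed, covering one subunit of a heterodimeric triplet polymerase ribozyme. Frozen incubation at −7 °C followed annealing with a biotinylated primer, partner subunit and triplets, and extended constructs were then gel-excised, streptavidin-captured and taken through RT-PCR. Fitness is the logarithm of genotype enrichment over wild-type enrichment, from inverse-variance-weighted replicate averages of Illumina-sequenced inputs and outputs. […] only genotypes with ≥10 input reads and ≥1 read per output were kept.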
row,Variant,polymerase ribozyme fitness (log ratio)
1,C8A A19G C57G G88A U146G,≤ -4.2
2,U7G A26G A28C A52G G88C A107U A122G G143U A147U U151C,≤ -4.2
3,C8G A22U U55A U82G A91G A107G U109G,≤ -4.2
4,C8A U9G U55A C57A A107G A121U G126U U139C G141U,≤ -4.2
5,U7G C8G U45G A66U C85U A138U,≤ -4.2
6,C8A G25U U31A U82C C118G U145C,≤ -4.2
7,U7G A60G,-2.7
8,C8A A52C C87A,≤ -4.2
9,C8A A12U C14U U56A C57U U82A G84A G92U A106C G143C,≤ -4.2
10,C8A G58C A91U C96G,≤ -4.2
11,C8G A12U G25A A28U A39C G58C G94U U144G,≤ -4.2
12,C8A G83U U90G C118A,≤ -4.2
13,U7G A91U U104G C125A G141C U144A,≤ -4.2
14,U7G U53A A147G,≤ -4.2
15,C8G A21U A22G A60G C93U,≤ -4.2
16,C8G C35A G88C U148C,≤ -4.2
17,C8G G42A G59U A66U C87G U139G,≤ -4.2
18,C8A G88A,≤ -4.2
19,C8A C14U A16U U33G A47U C57A C93A A142U,≤ -4.2
20,C8G A29C G58C G84C A122G U145G,≤ -4.2
21,C8A C18U A20G U45A G59C G62A C76U C114G,≤ -4.2
22,C8A C93A C103G A115G A119G G140A,≤ -4.2
23,C8G C54G G67A C85G,≤ -4.2
24,U7G C87A A113U,≤ -4.2

row,Variant,polymerase ribozyme fitness (log ratio)
1,U7G C10A U53A U139A G141A,≤ -4.2
2,C8A A12U C54G C87G C129G,≤ -4.2
3,U7G A23G C32A A115G,≤ -4.2
4,C8A C87A,≤ -4.2
5,C8G C36G G92A C96U,≤ -4.2
6,C8A A24C A29U C54G A89U C93A,≤ -4.2
7,C8G A21U C38U G59A G74A C95A,≤ -4.2
8,C8G C35G C105G U144A,≤ -4.2
9,U7G C38A G83A G84U U148C,≤ -4.2
10,U7G C14G A28C G42A,≤ -4.2
11,C8A A39G G84U A106U C149G,≤ -4.2
12,C8G A28C C72A U82A C87G,≤ -4.2
13,C8A A37G A66U C75G,≤ -4.2
14,U7G A22C A28U A39G C87A G126U C129U,≤ -4.2
15,C8G A22U G58A U61A U77G G88A,≤ -4.2
16,C8A U56A C85U,≤ -4.2
17,C8G A41U C76A A91U C95G,≤ -4.2
18,U7G A29U C54U U56A C79U G94U,≤ -4.2
19,C8G A20C U33G A52G U61A G84C C125A,≤ -4.2
20,C8A A21C A49G G59A C63G C85G C105G A147C,≤ -4.2
21,C8A C38U U56A C87U C116U G143U,≤ -4.2
22,C8A A24G A49G A73C U77G C85A G136A,≤ -4.2
23,C8G G11U U31A U90G A137C A150U,-4.16
24,C8G G25C U33C C72U U82G C99G U144A,≤ -4.2

row,Variant,polymerase ribozyme fitness (log ratio)
1,U7G G50A C76G G81U C87A G112A G141U,≤ -4.2
2,C8A G42A G59U G67C,≤ -4.2
3,C8G A47G U104A C105A A106U G141U,≤ -4.2
4,C8G A29U G65A G81C C129U U135A U139G G143A,≤ -4.2
5,C8A A16G G50U G83C U135C G136C,≤ -4.2
6,U7G A39C G74A C93U C103A,≤ -4.2
7,C8G C14U G25C A52U C93U U104G U144A,≤ -4.2
8,U7G C75G G84A G141A,≤ -4.2
9,C8G A19G A21G A47U G92U A120U C129U,≤ -4.2
10,C8G A28U C87U C105U,≤ -4.2
11,C8A G25U A26U C27U G50A C76U C85U C96G A97U,≤ -4.2
12,U7G U15G A21C A39G U45G G92U U127C,≤ -4.2
13,C8A U31G C36U C114U A142C,-4.19
14,U7G A41U C43U U82G G92U U146A,≤ -4.2
15,C8G A12G A41C U78C C87U G94A C99G,≤ -4.2
16,C8G C18G C57G G83U C118U G128A,≤ -4.2
17,U7G C10A A23U A30U U90A G92U A115C C116U U135A G136C,≤ -4.2
18,U7G C57U C85G G86U,≤ -4.2
19,U7G U130A,-4.18
20,C8A C14U G42C G50A C75A G88U G141A,≤ -4.2
21,C8A A12U G81A C87U U146G,≤ -4.2
22,C8G A29G U31A G83C C93G,≤ -4.2
23,C8A C85U C105G U135C,≤ -4.2
24,U7G A28G U31C A147U,≤ -4.2

row,Variant,polymerase ribozyme fitness (log ratio)
1,C8A A30U A41C A47C U55C C93U C96U,≤ -4.2
2,U7G A23C A24U C54G,≤ -4.2
3,C8G A16U A20U G70A G92U A120U G140A,≤ -4.2
4,U7G G74A C103A,≤ -4.2
5,C8G A41U U55G U56A G65A G70C U78A G81A C93A A122U,≤ -4.2
6,U7G U15A A41U A66C G94U C99G G133U U148G,≤ -4.2
7,U7G U13G G83A C93U A107G,≤ -4.2
8,U7G U61G G94C A98C U109C G141A A142C U146C,≤ -4.2
9,C8A G92A C118G G133U G136A,≤ -4.2
10,C8A C35U A73G C114G C118A,≤ -4.2
11,U7G C18U A24U C35A A97U C114G U148A,≤ -4.2
12,U7G C10U C36G G70C A122U C149G,≤ -4.2
13,C8G C85A,≤ -4.2
14,C8A A52C C75U C95G C96U U109A,≤ -4.2
15,C8A C87G C108G U111A A115U,≤ -4.2
16,C8A A49G C76A C93A C103G C105A U127C,≤ -4.2
17,C8A C79U G81C C125U,≤ -4.2
18,C8A A19U A22G C93A G133C,≤ -4.2
19,U7G G67C G86U C105G C132G U145G,≤ -4.2
20,C8A U55A A66C G67U U77A C99U C108U G133C G136A,≤ -4.2
21,C8A C54G C93G A97U U104G,≤ -4.2
22,C8A C10U A17C C32U A41C C85G C99U,≤ -4.2
23,C8G A22G U44A A52C A73C C125G,≤ -4.2
24,C8A U31A U56G C63A G68U C99A G128U,≤ -4.2

row,Variant,polymerase ribozyme fitness (log ratio)
1,C8G A26C G46A C63U G88C C96A A150C,≤ -4.2
2,C8G A24U A29G C54G C57U G94A A98G U135G,≤ -4.2
3,C8A A64C C72A C95U C116G A121C A138C,≤ -4.2
4,C8A C38U C118G C129U,≤ -4.2
5,C8G A73U C87G,≤ -4.2
6,C8A G68A A91U A97C A119G U139A G141U,≤ -4.2
7,U7G G46C U61A C63U U82A A122G,≤ -4.2
8,C8G A16G G68A C96U A98G A119C A121C C125A,≤ -4.2
9,C8A A22U G84A A91C,≤ -4.2
10,C8A A40U C57U U78A A119C,≤ -4.2
11,C8A A17G C36U G86C G133C,≤ -4.2
12,C8G C10G C14G A41C G83U A119U G141C,≤ -4.2
13,U7G A26U U56G G59C G83A C96U A138C,≤ -4.2
14,C8G A47C C54G C93A G126A,≤ -4.2
15,C8A C54U C85G C95U,≤ -4.2
16,U7G C35A U55A A60C C87U G117U G128A,≤ -4.2
17,U7G A49C,≤ -4.2
18,U7G G42C U61A C96U G112C G124C G126C G136A,≤ -4.2
19,C8A U55G A66U G94A,≤ -4.2
20,U7G A29U U53A C75U G81U C95U A98U C105G A106U,≤ -4.2
21,C8A A17U U55A G81C C87A A91U U144C U145C,≤ -4.2
22,U7G A30C C32G C51U U144A,≤ -4.2
23,C8G G11C A26U C38U C57U C95U A137G,≤ -4.2
24,C8A G83U C93G A142C,≤ -4.2

row,Variant,polymerase ribozyme fitness (log ratio)
1,C8A C76A U82G C93A,≤ -4.2
2,U7G U82A G117U,-3.65
3,C8A A21C,-3.76
4,U7G C76G C103A,≤ -4.2
5,C8G A49C G50A C57U C63U C87A C99U C123G,≤ -4.2
6,C8G C36G A98G U101G G136A,≤ -4.2
7,C8G A24C C38U G71C A91C,≤ -4.2
8,C8A A22C U44A G81A G94C C108A,≤ -4.2
9,U7G A37G C38U G59U A60U G94U C108U,≤ -4.2
10,U7G C27U A41U G58A G80A C96A G126C A138U,≤ -4.2
11,C8A G50A G71C G92A,≤ -4.2
12,C8G C14U A26C U61A C69U G80A U145G,≤ -4.2
13,C8A C35A A73U C93U G140U,≤ -4.2
14,C8G C116G,-3.15
15,U7G A28U A41U C57A C87G C131G U148C,≤ -4.2
16,C8A C14G G46A A49U G58U G86U A115U A121U A122U C123A,≤ -4.2
17,C8G C10U G50U C93U C95A C116U C129A,≤ -4.2
18,C8A C27U G70A C96U,≤ -4.2
19,C8G C14G A30U C79U,≤ -4.2
20,C8A U9G A17C A30U A40G G50A A73G,≤ -4.2
21,C8A A17C A26U U44G G83A G152U,≤ -4.2
22,C8G A28U C35U C36U G48C A49U C79A G86U A119U,≤ -4.2
23,C8G A73U,≤ -4.2
24,C8A C54G G59U C75U G81A G84U G124C A138U G141C U151G,≤ -4.2

row,Variant,polymerase ribozyme fitness (log ratio)
1,C8G C14A U53A C57A C72A G88U C95U U139A,≤ -4.2
2,C8A A20G G42C A98U C108G A138U U144G,≤ -4.2
3,U7G G92U,-2.39
4,U7G C10A A52C C76G C93A A138G U139A U148G,≤ -4.2
5,C8A A21C C32G G83A G92A G140C G152U,≤ -4.2
6,U7G G46C G86U A91G U139A,≤ -4.2
7,C8G C35G G59A G84A G94C G100U U130A U135C,≤ -4.2
8,C8A C32U G59C G74C C105U U135G G143A,≤ -4.2
9,C8A A73U G83A C93U A138C U145C,≤ -4.2
10,C8G A49C G83C,≤ -4.2
11,C8G C10A A30C A66C G88A G94U A106C C131U,≤ -4.2
12,C8A A73U G83A,≤ -4.2
13,C8G A91U,≤ -4.2
14,U7G C85G A107G,≤ -4.2
15,C8G A47C G50C U78G G94U C108A A121U,≤ -4.2
16,U7G A24G G94U G143U,≤ -4.2
17,C8A A12U C35G G92U C103G,-3.99
18,C8G G11U C32G,≤ -4.2
19,C8G G11C A17C C38A U55A G70A C75A C87A A91U G133A,≤ -4.2
20,C8A U9G A39C C103A,≤ -4.2
21,C8G G42C G50C A91C C93A,≤ -4.2
22,C8G C10U G65U C96U G100A A142G,≤ -4.2
23,C8G A52G,-3.17
